This experiment concerns the target T1, estrogen receptor (ER), full-length (human, UniProt P03372 1-595).
T1 construct: 35S-labeled when in vitro translated for the pull-downs; endogenous in MCF7 cells for the co-immunoprecipitation; also called ERα; pSG5-ER
T1 sequence: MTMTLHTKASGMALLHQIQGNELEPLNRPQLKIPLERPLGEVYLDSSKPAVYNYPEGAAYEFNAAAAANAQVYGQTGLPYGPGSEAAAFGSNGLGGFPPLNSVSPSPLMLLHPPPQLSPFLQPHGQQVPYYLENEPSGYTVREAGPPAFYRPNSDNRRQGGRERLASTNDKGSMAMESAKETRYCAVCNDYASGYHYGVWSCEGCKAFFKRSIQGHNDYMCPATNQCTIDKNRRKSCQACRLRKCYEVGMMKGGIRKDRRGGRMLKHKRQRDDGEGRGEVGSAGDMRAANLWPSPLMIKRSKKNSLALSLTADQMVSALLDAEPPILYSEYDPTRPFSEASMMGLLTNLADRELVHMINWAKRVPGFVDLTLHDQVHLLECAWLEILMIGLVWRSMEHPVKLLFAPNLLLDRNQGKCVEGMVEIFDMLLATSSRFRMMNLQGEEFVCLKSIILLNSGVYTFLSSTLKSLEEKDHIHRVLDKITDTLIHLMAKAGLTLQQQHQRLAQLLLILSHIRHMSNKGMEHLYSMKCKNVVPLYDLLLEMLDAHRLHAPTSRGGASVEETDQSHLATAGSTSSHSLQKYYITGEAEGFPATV
The experiment in a line: GST pull-down in the absence of E2.

The values that follow come from patent US20030235860A1 (published 2003).

B1: GST control protein (other)
chain: not shown
notes: Control protein on glutathione-Sepharose beads; also called GST alone
With B1, the binding result is “no binding”.
